# Measurements: the supplement of paper PMC11417369
# Some of the results follow.
# Test system: PfSIP2 AP2 domain 1 (GST-tagged)
# Assay: gcPBM binding intensity (ln(normalized median fluorescence intensity)); higher = stronger DNA binding
# Outline: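 In this array assay, P. falciparum DNA-binding domains with a GST tag, expressed in E. coli, were applied for 1 h to primer-extended double-stranded 36-bp intergenic genomic probes and negative controls on an Agilent 4 × 180k array. Bound protein was visualised with Alexa488 anti-GST antibody at 488 nm. Binding intensity is the highest Masliner-normalised natural-log median intensity across replicate spots of either probe orientation.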
row,Sequence,gcPBM binding intensity (ln)
1,TACTATATCGATACCAGTACAGATTTATAAATAATA [XGTACX_site7491],6.94
2,AAATATAATAATAATTTAAGAATCTAATATTTTATA [CACACA_negctrl_site831],6.59
3,TATATTAAGTATAAGACACACATATAGTAATAGAAA [CACACA_site5176],6.83
4,TTATAAAAAAAAATAACACACAGACATAAGAATAAA [CACACA_site9383],7.04
5,AAGTGTCAAAGTTACACACACAAACTTGTCATTTTT [CACACA_site837],6.66
6,ATATAACTTTTCTTAACACACAAAAAACAAAAATAA [CACACA_site2380],7.24
7,GGTATACATATTAAATGTACATATTTTAACAATAAG [XGTACX_site4868],7.1
8,ATATAATTATATAAATGTACTCATTCGTTATTTTGC [XGTACX_site6132],6.99
9,TTATTCAGAAAAAAAAAAAAAAAAAAAAAAAAAAAA [CACACA_negctrl_site1662],7.12
10,TATATATATGTGCAGTGTACTTTTTTTTTCTGTAAG [XGTACX_site3424],7.79
11,ATATGTAAAGAAAAGTAAACACTAATTTTAAACAAT [CACACA_negctrl_site11],6.88
12,TTTTTTTTAATTGTGATACGTATATTATTTTTTGAT [TGCATGCA_negctrl_site318],6.99
13,ATTTTTAATATTATTACACACACTAATAAAAAAAAA [CACACA_site8265],7.05
14,GAGAAGACATTACACAGTACCCAGGAAATCTACGGA [XGTACX_site1993],7.1
15,ATATATATATATATATGTACTTAATATTTCTTATTT [XGTACX_site6206],9.42
16,TCGACAAATGTATATACACACATTTGTAACATAAAT [CACACA_site560],6.84
17,TATAAAGGTGAAATTTGTACATAGTCATTTTTTAAT [XGTACX_site4811],6.86
18,TGATTAAAAGAGGGAAAAAAAAAAAAAAAAAAAAAA [CACACA_negctrl_site896],7.12
19,TGACGAAAAAAAAGGGTGCTTAGTATAACTTTAAAG,8.7
20,TTCTTTTTTAAACACACACACACAAGAAAATATATA [CACACA_site5680],7.49
21,GACTTTTCATTTATAGTGCAAGTTTTTTTTTTTTTT [GTGCAC_site9698],8.38
22,ATAAATATAAAAAAATGTACATATAGTAATACATAC [XGTACX_site508],7.2

row,Sequence,gcPBM binding intensity (ln)
1,GAAATAAAAAGAAATGCATGTAATTTTTTTTTTTTT [TGCATGCA_site928],6.71
2,ATAAGTATAAGAATCAGTACACAGTTTCTACATACT [XGTACX_site5834],6.83
3,TATATATCATTTAAAACACACAAAAAAAAAAGTTAT [CACACA_site6191],6.93
4,ATTAAAACCAATTAAAAAAAATTTATAATGGAAGCA [TGCATGCA_negctrl_site273],6.77
5,TATTATTGTTGTTCATGTACACACTATAATAAAAGC [XGTACX_site8957],7.29
6,GAGATAAAATAAAACACACACATATATATATATAAT [CACACA_site5246],7.26
7,AATGACTAAATTTAAACACACAAGGGGAGTTTACTT [CACACA_site918],6.69
8,TTGTATTTTTAAATGACACACACATATATATATATA [CACACA_site8481],9.19
9,AATAAATAAGCACATACACACATACATACATACATA [CACACA_site6075],7.12
10,AAGTTATAAAAATAAAGTACAAAGTAGCTATTTTTT [XGTACX_site3144],6.84
11,TAGGCGTTTAATAAAAGTACCCACACATATATTATT [XGTACX_site1932],7
12,TTTATTATCGTTCTCATACACACAAAATATACATAC [CACACA_site2642],7.33
13,ATTTAACAACTTCAAACACACAATATATATATATAT [CACACA_site2093],9.46
14,AATTCAAATATAAATACACACACATAGCTACAAAAT [CACACA_site9386],7.04
15,AAATATATATGTGGGGGTACTAATAAAAAAACCCCT [XGTACX_site2657],7.07
16,CATAAATTAATAGTCACACACGTATTTTTTATATAT [CACACA_site2526],6.95
17,TTACACAAACAAATTATGGACACATAAGTAAAAGGA [CACACA_negctrl_site1622],7.27
18,TGAAAAAAAAAAAAAAAAAAAAGAAAAAAAAAAAAA [CACACA_negctrl_site709],6.59
19,GAAAAAAGAAAAAAAAGTACATATATTTAATAAGAC [XGTACX_site6912],7.43
20,TTATCCATAAAAAAGTGTACGCACTAAAATTGAAAA [XGTACX_site5460],7.92
21,TATAATTCATATGAAACACACATTTATTTTAATTAC [CACACA_site3686],6.93
22,GTTATTTATAGACACACACACATGCATGCACATATA [CACACA_site6204],9.23
